The list shows a part of the results.
Molecular target: no compound (DMSO)
Assay: log2 fold change of degron read counts, EGFP-low vs EGFP+ sorted cells; higher = lower degron-EGFP level without compound (poor expression or instability)
Conditions: compound: DMSO control; 18 h
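Further: jurkat cells carrying a lentiviral library of mutant zinc finger degrons fused to EGFP plus mCherry, mCherry+ cells FACS sorted, degron abundance counted by next-generation sequencing.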

Row | Sequence | log2 fold change of degron read counts
1 | FSCSVCGHYFTQKGNLLRHIKL | 0.256
2 | FGCNVCGARFTQKGNLLRHIKL | -0.826
3 | FDCNQCGACFTQKGNLLRHIKL | 0.149
4 | FSCPICGRIFTQKGNLLRHIKL | 0.275
5 | LVCEICGFRCTQKGNLLRHIKL | -0.388
6 | FTCNQCGRDFTQKGNLLRHIKL | -1.32
7 | FGCEVCGAQFTQKGNLLRHIKL | -1.23
8 | FNCPICGRKFTQKGNLLRHIKL | -1.29
9 | FICEQCGADFTQKGNLLRHIKL | -1.99
10 | FACPICGASFTQKGNLLRHIKL | -0.276
11 | LCCEICGFNCTQKGNLLRHIKL | -0.152
12 | FKCNQCGHQFTQKGNLLRHIKL | -0.961
13 | FLCPICGRAFTQKGNLLRHIKL | 0.124
14 | FQCDVCGAWFTQKGNLLRHIKL | -0.696
15 | FVCDICGAMFTQKGNLLRHIKL | -2.25
16 | FGCNQCGHEFTQKGNLLRHIKL | -0.359

Row | Sequence | log2 fold change of degron read counts
17 | FNCPICGHLFTQKGNLLRHIKL | -0.0516
18 | LHCPICGFNCTQKGNLLRHIKL | 0.599
19 | FSCPQCGAFFTQKGNLLRHIKL | 0.0617
20 | FSCEICGRDFTQKGNLLRHIKL | -1.63
21 | FMCDVCGAHFTQKGNLLRHIKL | -2.21
22 | FACDVCGALFTQKGNLLRHIKL | -1.4
23 | FLCNQCGAIFTQKGNLLRHIKL | 0.552
24 | LSCNQCGFLCTQKGNLLRHIKL | 1.07
25 | FCCSVCGHTFTQKGNLLRHIKL | -0.742
26 | FGCPQCGASFTQKGNLLRHIKL | -1.12
27 | FKCDQCGAMFTQKGNLLRHIKL | -1.65
28 | FGCEVCGATFTQKGNLLRHIKL | -2.6
29 | FFCNQCGAKFTQKGNLLRHIKL | -0.172
30 | FICEICGAAFTQKGNLLRHIKL | -2.36
31 | FGCDQCGAGFTQKGNLLRHIKL | -1.35
32 | FLCPQCGAIFTQKGNLLRHIKL | 0.774

— the supplement of paper PMC12645437, “Orthogonal IMiD-Degron Pairs Induce Selective Protein Degradation in Cells” (ACS Chemical Biology, 2025)
